{
  "source": "PubChem BioAssay AID1814",
  "about": "(Broad Institute, 2009)",
  "note": "Screen size: about 300,000 compounds; about 22,000 (7.3%) were called active. This list was built around the results that the source calls inconclusive (neither active nor inactive); the mix of calls is not that of the screen. Rule as the data show it: active = activity score below about -60%; inconclusive = mostly about -28% to -61%; inactive = positive scores.",
  "data": [
    {"experiment": "Activators via SNCA 5'UTR binding, MLPCN (AID 1814)", "details": "alpha-synuclein 5'UTR reporter, activators screen; stronger effect = lower value; tested at 7.5 µM", "values": [
      {"compound": "Cc1coc2c1C(=O)C(=O)c1c-2ccc2c1CCCC2(C)C", "activity score": "inactive: 63%"},
      {"compound": "O=C(Cn1nnc(-c2ccc(F)cc2)n1)N1CCCCC1", "activity score": "inconclusive: -35.8%"},
      {"compound": "COc1ccc(Br)cc1CN(C)C(C)C(=O)Nc1cc([N+](=O)[O-])ccc1OC", "note": "(configuration not stated)", "activity score": "inactive: 51.4%"},
      {"compound": "CCCCC(=O)NC(c1ccccc1)c1ccc2cccnc2c1O", "note": "(configuration not stated)", "activity score": "inactive: 67.9%"},
      {"compound": "Cc1ccc(C(=O)NC(NC(=O)c2ccc(C)cc2)C(Cl)Cl)cc1", "activity score": "inconclusive: -52.8%"},
      {"compound": "O=C(Cn1cc2c(n1)CCCCC2)NC1CCCCCC1", "activity score": "inconclusive: -61.1%"},
      {"compound": "O=C(Nc1ccc(CN2CCOCC2)cc1)c1cc2ccccn2n1", "activity score": "inactive: 71.7%"},
      {"compound": "Cc1ccc(Cn2nc(C)c(NC(=O)c3cc(-c4ccc5c(c4)OCO5)on3)c2C)cc1", "activity score": "inactive: 42.7%"},
      {"compound": "CCN(CC)c1ccc(-c2nn3c(-c4n[nH]c5c4CCC5)nnc3s2)cc1", "activity score": "inactive: 72.3%"},
      {"compound": "CCCCC(=O)NC(c1cccs1)c1cc(Cl)c2cccnc2c1O", "note": "(configuration not stated)", "activity score": "inactive: 80.3%"},
      {"compound": "CNC(=S)N/N=C1\\C(=O)c2cccc3cccc1c23", "activity score": "inconclusive: -57.4%"},
      {"compound": "Cc1ccc2oc(-c3ccco3)nc2c1", "activity score": "active: -137%"},
      {"compound": "Cc1cc(/C=N/Nc2nc(N)ncc2[N+](=O)[O-])c(C)n1-c1ccccc1F", "activity score": "inactive: 72.7%"},
      {"compound": "Cc1[nH]c2ccccc2c1-c1nc2ccccc2[nH]1", "activity score": "active: -78.5%"},
      {"compound": "CN(C)c1ccc(/C=C/c2nc3ccccc3c(=O)[nH]2)cc1", "activity score": "inactive: 87.4%"},
      {"compound": "CCc1ccc(OCC(=O)N/N=C/c2ccc(OS(=O)(=O)c3ccc(C)cc3)c(OC)c2)cc1", "activity score": "inconclusive: -39.4%"},
      {"compound": "Cn1cccc1/C=C1\\SC(=S)N(Nc2ccccc2)C1=O", "activity score": "inconclusive: -59.5%"},
      {"compound": "CCOC(=O)c1c2c(n(C)c1COC)C(=O)C(=O)c1ccc(Br)cc1-2", "activity score": "inactive: 92.1%"},
      {"compound": "Cc1[nH]c(=O)c(C(=O)/C=C/c2ccccc2)c2c1CCCC2", "activity score": "active: -146%"},
      {"compound": "O=C(NC1CCCCCC1)C1c2ccccc2C(=O)N1Cc1cccs1", "note": "(configuration not stated)", "activity score": "inconclusive: -35.5%"},
      {"compound": "N/C(=N\\OC(=O)c1cc([N+](=O)[O-])ccc1Cl)c1cccnc1", "activity score": "inactive: 88.1%"},
      {"compound": "CC(C)(C)c1cc(C(=O)Nc2ccccc2)ccn1", "activity score": "inconclusive: -46.7%"},
      {"compound": "O=C(Nc1nc2cc3c(cc2s1)OCO3)c1ccco1", "activity score": "inactive: 79.8%"},
      {"compound": "Cc1ccc2c(C)c(C(=O)N3CCCC(C(N)=O)C3)oc2c1C", "note": "(configuration not stated)", "activity score": "inconclusive: -57.1%"},
      {"compound": "Cc1ncsc1CCOC(=O)c1ccccc1", "activity score": "inconclusive: -36.5%"},
      {"compound": "CCCCOc1ccc(-c2ncc(N)cn2)cc1", "activity score": "active: -95.3%"},
      {"compound": "COc1ccc(CNC(=O)Nc2ccc(C)cc2)cc1", "activity score": "inconclusive: -60.2%"},
      {"compound": "Cc1ccccc1OCC(=O)N1CCc2ccccc2C1", "activity score": "inconclusive: -58.1%"},
      {"compound": "CC(C)CC(=O)NC(=S)Nc1ccc(N2CCCC2)c(Cl)c1", "activity score": "inconclusive: -42.7%"},
      {"compound": "O=C(Nc1ccc(Cl)cc1)c1ccc(-c2ccccn2)s1", "activity score": "active: -170%"},
      {"compound": "O=C1NC(=S)N/C1=C\\c1ccc(N2CCOCC2)cc1", "activity score": "inconclusive: -57.6%"},
      {"compound": "Cc1ccccc1S(=O)(=O)Cc1ccc(C(=O)NC2CCCC2)o1", "activity score": "inconclusive: -37.1%"},
      {"compound": "COc1ccccc1NC(=O)c1nc(S(=O)(=O)Cc2ccccc2)ncc1Cl", "activity score": "inactive: 70.9%"},
      {"compound": "Cc1ccc(C(c2nnnn2C2CCCC2)N2CCc3ccccc32)cc1", "note": "(configuration not stated)", "activity score": "inconclusive: -59.7%"},
      {"compound": "CCOC(=O)c1c(C)[nH]c(C(=O)COc2ccc3c(c2)OCO3)c1C", "activity score": "inconclusive: -51.8%"},
      {"compound": "c1ccc(-n2cnc3cc(NCc4cccs4)ccc32)cc1", "activity score": "active: -167%"},
      {"compound": "Brc1ccccc1/C=N/Nc1ccccn1", "activity score": "active: -131%"},
      {"compound": "COc1cccc(OCCSc2nnc3sc4ccccc4n23)c1", "activity score": "inconclusive: -54.9%"},
      {"compound": "Cc1cc(C)c2nc3nc(C)cc(C)c3c(N)c2c1", "activity score": "active: -190%"},
      {"compound": "O=C(COc1ccc(Cl)cc1)NCCS(=O)(=O)N1CCN(c2ccccc2F)CC1", "activity score": "inconclusive: -56.1%"},
      {"compound": "CCc1ccc(C(=O)Nc2nc3ccccc3[nH]2)cc1", "activity score": "inactive: 87.9%"},
      {"compound": "C/C(=N\\NC(=O)c1cccs1)c1c(O)cc(C)oc1=O", "activity score": "inconclusive: -59.6%"},
      {"compound": "COC(=O)c1sc(N)c(C(=O)OC)c1Cn1ncc(Cl)c(Cl)c1=O", "activity score": "inconclusive: -53.3%"},
      {"compound": "c1ccc(-c2nnc(-c3ccccc3)o2)cc1", "activity score": "active: -95.7%"},
      {"compound": "COc1ccc2nc(-c3ccccc3)[nH]c2c1", "activity score": "active: -70.7%"},
      {"compound": "COC(=O)N/N=C/c1cc(C)n(-c2ccc(F)cc2)c1C", "activity score": "inconclusive: -55.6%"},
      {"compound": "COc1cc(CNCCCN2CCOCC2)ccc1OCC(=O)Nc1cccc(C(F)(F)F)c1", "activity score": "inconclusive: -32.6%"},
      {"compound": "O=C(Nc1cc(Br)ccc1O)c1cnn2c(C(F)F)cc(C3CC3)nc12", "activity score": "inconclusive: -44.9%"},
      {"compound": "O=C(CCl)N(c1ccccc1)C1CCCCC1", "activity score": "inactive: 110%"},
      {"compound": "Cc1cc(N/N=C/c2ccc(O)c(C)c2O)nc(-c2ccccc2O)n1", "activity score": "inactive: 86.7%"},
      {"compound": "O=C(N/N=C/c1ccc([N+](=O)[O-])s1)c1cccc(Br)c1", "activity score": "inactive: 67.4%"},
      {"compound": "CCc1ccccc1Nc1ccc(C(=O)O)cc1N", "activity score": "inconclusive: -51.8%"},
      {"compound": "COc1ccc(Nc2ncnc3c2c(C)c(C)n3CCCN(C)C)cc1", "activity score": "inconclusive: -52%"},
      {"compound": "c1ccc(-c2cnc(-c3ccccc3)nc2)cc1", "activity score": "active: -66.4%"},
      {"compound": "COc1cccc(CNc2ccc(C)c(Cl)c2)c1", "activity score": "inconclusive: -44.5%"},
      {"compound": "CCNC(=O)COC(=O)c1cc(C)n(-c2ccccc2)c1C", "activity score": "inconclusive: -57.6%"},
      {"compound": "O=C(NC(=S)NNC(=O)c1cnccn1)c1ccc(Cl)cc1", "activity score": "inactive: 60.8%"},
      {"compound": "CC(C)(C)C1CCC2(CC1)NC(=S)N(c1ccccc1)N2", "note": "(configuration not stated)", "activity score": "inconclusive: -35.5%"},
      {"compound": "c1ccc(-c2cccc(-c3ccccc3)n2)cc1", "activity score": "inconclusive: -51.9%"},
      {"compound": "CC(=O)Nc1nc2ccccc2n1Cc1ccc(Cl)cc1", "activity score": "inactive: 50.7%"},
      {"compound": "O=C(Nc1ccc2c(c1)OCO2)c1ccc(Cl)cc1Cl", "activity score": "inconclusive: -51.9%"},
      {"compound": "O=C(CSc1ncccc1-c1nc2ccccc2[nH]1)NCc1ccco1", "activity score": "inconclusive: -60.8%"},
      {"compound": "O=c1cc(CO)occ1OCc1c(F)cccc1Cl", "activity score": "inconclusive: -30.2%"},
      {"compound": "Cc1ccccc1NC(=S)N=Nc1c(O)n(C)c2ccc(S(=O)(=O)N3CCOCC3)cc12", "activity score": "inactive: 77.9%"},
      {"compound": "CC(=O)c1cccc(NC(=O)CCC2CCCC2)c1", "activity score": "inconclusive: -49.4%"},
      {"compound": "CCCn1nc(NC(=O)c2cccs2)c2cc3cc(C)ccc3nc21", "activity score": "inconclusive: -51.6%"},
      {"compound": "Cc1cccc(-c2nc3c(c(SCC(=O)N4CCCC4)n2)COC(C)(C)C3)c1", "activity score": "inconclusive: -59.9%"},
      {"compound": "CC1Cc2ccccc2N1C(=O)c1cnc2sccn2c1=O", "note": "(configuration not stated)", "activity score": "inconclusive: -56.4%"},
      {"compound": "O=C(/C=C/c1cccc(F)c1)c1ccc(N2CCOCC2)cc1", "activity score": "active: -80.4%"},
      {"compound": "Cc1ccc(C(=O)/C=C/c2ccc(-c3ccccc3[N+](=O)[O-])o2)cc1", "activity score": "inconclusive: -52.3%"},
      {"compound": "O=C1CCCN1CCCNc1ncnc2c1[nH]c1ccccc12", "activity score": "inconclusive: -59.4%"},
      {"compound": "Cc1ccccc1C(=O)Nc1ccc(N2CCCC2)cc1", "activity score": "active: -154%"},
      {"compound": "CCC1CCCCN1C(=O)CSc1nnc(-c2ccc(Cl)s2)o1", "note": "(configuration not stated)", "activity score": "active: -62.5%"},
      {"compound": "Cc1cccc2cc3c(nc12)-c1ccccc1C3=O", "activity score": "inconclusive: -50.3%"},
      {"compound": "Cc1oc(=O)c(NC(=O)c2ccc(Cl)cc2)cc1C(=O)c1ccccc1", "activity score": "inconclusive: -59.1%"},
      {"compound": "O=[N+]([O-])c1ccc(/C=[N+](\\[O-])[C@@H]2CCCC[C@@H]2/[N+]([O-])=C/c2ccc([N+](=O)[O-])o2)o1", "activity score": "inconclusive: -49.6%"},
      {"compound": "Cc1ccc(Nc2nc(N)nc(-c3oc4ccccc4c3C)n2)cc1", "activity score": "inactive: 91.1%"},
      {"compound": "CCOC(=O)c1oc2c(c1C)/C(=N/O)CCC2", "activity score": "inconclusive: -59.4%"},
      {"compound": "Oc1ccc(CN2CCC(Cc3ccccc3)CC2)c2cccnc12", "activity score": "inactive: 105%"},
      {"compound": "COc1ccc(N/C=C/C(=O)c2cc(OC)c(OC)c(OC)c2)cc1", "activity score": "inactive: 60.2%"},
      {"compound": "CCN(CC)c1ccc(NC(=O)C2CCCC2)cc1", "activity score": "inconclusive: -57.9%"},
      {"compound": "Cn1ccnc1SCC(=O)c1ccc(OC(F)F)cc1", "activity score": "inconclusive: -61.4%"},
      {"compound": "O=C(NC1CCCCCCC1)c1ccc2c(c1)OCO2", "activity score": "inconclusive: -39.6%"},
      {"compound": "COc1ccc2cc(-c3[nH]ncc3CN3CCCC3c3nonc3C)ccc2c1", "note": "(configuration not stated)", "activity score": "inconclusive: -61.1%"},
      {"compound": "O=c1[nH]c2c(s1)C=Nc1ccccc1N2", "activity score": "inconclusive: -48%"},
      {"compound": "c1ccc(-n2ncc3c(NCCN4CCOCC4)ncnc32)cc1", "activity score": "inconclusive: -53.7%"},
      {"compound": "COc1ccccc1C(=O)NNC(=S)NC(=O)c1cccs1", "activity score": "inactive: 73.2%"},
      {"compound": "O=c1[nH]c2ccc(NC(=S)Nc3ccc(Cl)cc3Cl)cc2[nH]1", "activity score": "inconclusive: -43.1%"},
      {"compound": "CCc1ccc(NC(=O)c2ccc3c(c2)C(=O)N(Cc2ccco2)C3=O)cc1", "activity score": "inconclusive: -58.2%"},
      {"compound": "Brc1c(CSc2nc3ccccc3s2)nc2ncccn12", "activity score": "active: -110%"},
      {"compound": "COc1cc(C2CC(=O)Nc3c2c(=O)nc2c(C)cccn32)cc(OC)c1OC", "note": "(configuration not stated)", "activity score": "inconclusive: -51.5%"},
      {"compound": "CCCc1cc(C(=O)Nc2ccc(CC)cc2)no1", "activity score": "active: -169%"},
      {"compound": "C=CCn1c(=O)c2c(nc3n2CCS3)n(C)c1=O", "activity score": "inconclusive: -55.7%"},
      {"compound": "O=C(COc1ccc(/C=N/NS(=O)(=O)c2ccccc2)cc1)Nc1ccccc1", "activity score": "inconclusive: -59%"},
      {"compound": "Cc1ccc(NC(=O)C(=O)NCCCN2CCCC2=O)c(C)c1", "activity score": "inconclusive: -60%"},
      {"compound": "Cc1ccc2nc(SCc3ccc([N+](=O)[O-])cc3)[nH]c2c1", "activity score": "inconclusive: -40.4%"},
      {"compound": "O=C(CSc1nnc(Nc2ccccc2F)s1)Nc1cccc(S(=O)(=O)N2CCCCC2)c1", "activity score": "inconclusive: -55.4%"}
    ]}
  ]
}
